Assay results as given in PubChem BioAssay AID588855 (National Center for Advancing Translational Sciences (NCATS), 2011).
About 5,000 (1.2%) of roughly 410,000 compounds were called active. This list was built around the results that the source calls inconclusive (neither active nor inactive); the mix of calls is not that of the screen. The call rests on the fitted dose curve; in most records, active means well fitted inhibition curve with a large enough effect; inconclusive means small, poorly fitted or top-dose-only effect; inactive means no such curve, though single readings can be large or run the other way. Where the call is inconclusive, the potency comes from a doubtful curve fit.

Test: qHTS for Inhibitors of TGF-b; further: nearly all actives have a fitted effect of over 65% in size
Settings: HepG2 CAGA-GFP TGF-b/SMAD3 reporter, GFP fluorescence, 18 h, TGF-beta stimulated, 500 pg/mL final; series mostly up to 46.1 µM; activity, negative = inhibition: at the top concentration
Outline: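 GFP signal (ex488/em500-530) from TGF-beta-stimulated HEPG2 CAGA-GFP cells, 500 pg/mL final, 18 h at 37 degrees C in DMEM plus 1% FBS, normalized to unstimulated and DMSO-stimulated controls.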
On the % scale 0 is the no-effect control and ±100 the full control effect; potency means the concentration at half of the fitted maximal effect; tags describe the fitted curve by direction and shape.

Compound	Potency	activity, negative = inhibition
Fc1ccc2c(c1)C(c1ccncc1)=NNC(c1ccc(Cl)cc1)=N2	inconclusive: 35.5 µM [inhibitor, single point]	
Cc1ccc(CN2C3=NCCCN3c3ccccc32)cc1	inconclusive: 20 µM [inhibitor, single point]	
CCOc1ccc(NS(=O)(=O)c2cc(C)c(C)cc2C)cc1	inconclusive: 35.5 µM [inhibitor, single point]	
Cc1cc(C)cc(C(=O)N2CC(=O)Nc3ccccc32)c1	active: 10 µM	
CCCCc1ccc(NC(=S)NN2CCOCC2)cc1	inconclusive: 22.4 µM [inhibitor, single point]	
Cc1ccc(NC(=O)c2nc[nH]c2C(=O)N[C@H](C)c2ccccc2)cc1	inconclusive: 22.4 µM [inhibitor, partial curve, poor fit]	
Cc1cccc(-n2ncc3c(NC(C)C)ncnc32)c1		inactive: -9.13%
COc1ccc(CNC(=S)Nc2ccccc2)cc1Cl	inconclusive: 28.2 µM [inhibitor, single point]	
COCCn1c(=NC(=O)C2COc3ccccc3O2)sc2cc(S(N)(=O)=O)ccc21 (configuration not stated)	inconclusive: 0.112 µM [inhibitor, full curve, poor fit]	
Clc1cccc(CNc2ccn3nc(-c4ccccc4Cl)cc3n2)c1	inconclusive: 20 µM [inhibitor, single point]	
Cc1ccc(S(=O)(=O)N2[C@@H](c3cccc(Cl)c3)C(C(=O)O)=CC[C@H]2c2ccc(C(C)C)cc2)cc1	inconclusive: 20 µM [inhibitor, single point]	
Cc1ccc(C)c(NS(=O)(=O)c2ccc(OCC(=O)NCc3ccco3)cc2)c1		inactive: 0.232%
CCC(=O)N1CCc2cc(CNS(=O)(=O)c3cccs3)ccc21	inconclusive: 0.112 µM [inhibitor, full curve, poor fit]	
Cc1ccc(-c2cnc3c(c2)C(=O)N([C@H](C)CO)C[C@H](C)[C@@H](CN(C)Cc2ccccc2F)O3)cc1		inactive: -2.31%
CCCCOc1ccc(CNC(=O)c2ccc3c(c2)N(C)C(=O)C2CCCCN32)cc1 (configuration not stated)	inconclusive: 22.4 µM [inhibitor, single point]	
COc1ccc(C(=O)Nc2nccs2)cc1[N+](=O)[O-]		inactive: -5.62%
CCc1ccc(CNC(=O)C2CCCN(S(=O)(=O)c3ccc4c(ccn4C)c3)C2)cc1 (configuration not stated)	inconclusive: 14.1 µM [inhibitor, single point]	
CC(=O)N1c2ccc(S(=O)(=O)N3CCC(C(=O)Nc4cccc(Cl)c4)CC3)cc2CC1C (configuration not stated)	inconclusive: 2.82 µM [inhibitor, partial curve]	
Cc1cc(=O)oc2cc(OCC(=O)OC(C)C(=O)Nc3ccc(S(N)(=O)=O)cc3)ccc12 (configuration not stated)		inactive: 4.02%
COCCOC(=O)c1[nH]c2c(c1C)C(=O)CC(c1ccco1)C2 (configuration not stated)	inconclusive: 11.2 µM [inhibitor, partial curve, poor fit]	
Cc1ccccc1NS(=O)(=O)c1ccc(C(=O)NCC(c2ccccc2)N(C)C)cc1 (configuration not stated)		inactive: 0.712%
COCCN(C(=O)c1cc2c(s1)CCC2)c1c(N)n(CC(C)C)c(=O)[nH]c1=O	inconclusive: 17.8 µM [inhibitor, single point]	
CCCCCCCCCCCC[n+]1ccc(/C=C/c2c[nH]c3ccccc23)c2ccccc21	inconclusive: 35.5 µM [inhibitor, single point]	

Compound	Potency	activity, negative = inhibition
OCCNc1ncnc2c1ncn2[C@H]1CN(Cc2ccc3c(c2)OCO3)C[C@@H](CO)O1		inactive: -4.56%
CCCCN(CC)CCNC(=S)Nc1ccc2nc(N3CCN(C)CC3)cc(C)c2c1		inactive: -15.8%
S=c1[nH]nc(-c2ccco2)n1/N=C/C(Cl)=C/c1ccccc1	inconclusive: 22.4 µM [inhibitor, single point]	
OC(C1=C/C(=C\c2ccncc2)c2ccccc21)c1ccncc1 (configuration not stated)	inconclusive: 35.5 µM [inhibitor, single point]	
Cc1ccc2c(=O)c(C(=O)c3ccccc3)cn(CC(=O)NCc3ccccc3)c2n1	inconclusive: 0.708 µM [inhibitor, full curve, poor fit]	
NC(=O)C1=C[C@H](c2ccc(C(F)(F)F)cc2)C[C@H](OCCCCO)O1	inconclusive: 17.8 µM [inhibitor, single point]	
COc1ccc(Cn2c(SCc3ccc(C(=O)NC4CCCCC4)cc3)nc3ccncc32)cc1	active: 12.6 µM	
CCc1cccc(C)c1Nc1c(-c2ccc(F)cc2)nc2sccn12	inconclusive: 14.1 µM [inhibitor, single point]	
COc1ccccc1/C=C/C(=O)NCC(=O)N/N=C/c1ccccc1		inactive: 2.08%
COC(CN1CCc2c(C)nc3c(C#N)cnn3c21)OC		inactive: 3.77%
CN(c1ccccc1)S(=O)(=O)c1ccc(C(=O)N2CCN(c3ccccc3F)CC2)cc1	inconclusive: 12.6 µM [inhibitor, partial curve]	
O=C(CNS(=O)(=O)c1ccc(Cl)c(C(F)(F)F)c1)NC1CCCCCC1	inconclusive: 35.5 µM [inhibitor, single point]	
CCOC(=O)c1scc(-c2ccccc2)c1S(=O)(=O)Nc1ccccc1OC	inconclusive: 22.4 µM [inhibitor, partial curve, poor fit]	
CSc1ccc(CN2CCN(C(=O)c3ccc([N+](=O)[O-])cc3)CC2)cc1		inactive: -29.9%
COc1ccc(CNS(=O)(=O)c2ccc(C(=O)N(C)C)s2)cc1	inconclusive: 15.8 µM [inhibitor, partial curve, poor fit]	
COc1ccc(CNCc2c(C(=O)O)c(C)n(Cc3ccccc3C)c2C)cc1OC		inactive: 4.15%
Cc1ccc(C)c(N2CCN(S(=O)(=O)c3ccc4[nH]c5c(c4c3)CCCC5)CC2)c1	active: 12.6 µM	
O=C(N/N=C/c1cccnc1)c1cc(-c2ccccc2Cl)nc2ccccc12		inactive: 11.1%
Cn1ccnc1C(=O)Cc1ccc([N+](=O)[O-])cc1	inconclusive: 22.4 µM [inhibitor, single point]	
CC1(CNC(=O)C(=O)NCC2(C)CO2)CO1 (configuration not stated)		inactive: 1.2%
CCOc1ccc(OCCC(=O)OCC(=O)N2CCN(S(=O)(=O)c3ccc(Cl)cc3)CC2)cc1	inconclusive: 11.2 µM [inhibitor, partial curve, poor fit]	
CCOc1ccc(NC(=O)C2CC=CCC2C(=O)O)cc1 (configuration not stated)	inconclusive: 15.8 µM [inhibitor, single point]	
Cc1ccc(OCCNC(=O)[C@H]2O[C@@H](n3cnc4c(N)ncnc43)[C@H](O)[C@@H]2O)cc1C	inconclusive: 11.2 µM [inhibitor, partial curve]	

Compound	Potency	activity, negative = inhibition
COc1cc(C(C)=O)ccc1Oc1ncnc2c1cnn2-c1ccc(F)cc1	inconclusive: 5.62 µM [inhibitor, single point]	
CCN(CC)C(=O)[C@H]1CC(CC(=O)NCCC2=CCCCC2)C(=O)N2CCc3c([nH]c4ccccc34)[C@]12C (some centres not stated)	inconclusive: 14.1 µM [inhibitor, single point]	
O=S(=O)(CCSc1nc2ccccc2o1)c1nc2ccccc2s1	inconclusive: 17.8 µM [inhibitor, partial curve, poor fit]	
O=C(c1ccc(CS(=O)c2cccc(Cl)c2)o1)N1CCN(c2ccccn2)CC1 (configuration not stated)	inconclusive: 3.16 µM [inhibitor, single point]	
O=C(Nc1cccc([N+](=O)[O-])c1)c1ccc2c(c1)OCCO2	inconclusive: 35.5 µM [inhibitor, single point]	
Cc1ccc(-c2nc3c4ccccc4ccn3c2CN2CCCCC2)cc1	inconclusive: 35.5 µM [inhibitor, single point]	
CCn1c(SCC(=O)N2c3ccccc3Sc3ccccc32)nc2c1c(=O)n(C)c(=O)n2C		inactive: 7.18%
CN(CCOCCOc1ccc2ccccc2c1)Cc1ccccc1	inconclusive: 0.501 µM [inhibitor, partial curve, poor fit]	
CCN1CCC[C@H]1CNCCCn1cnc2c(SC)ncnc21	inconclusive: 4.47 µM [inhibitor, full curve, poor fit]	
CCCCOc1cccc(C(=O)NC(=S)Nc2cccc(C(F)(F)F)c2)c1	inconclusive: 20 µM [inhibitor, single point]	
CCc1ccc(C(c2ccccc2)c2c(C)[nH]c3ccccc23)s1 (configuration not stated)	inconclusive: 35.5 µM [inhibitor, single point]	
CN1CCN(C(=S)c2ccc(Br)cc2)CC1	inconclusive: 25.1 µM [inhibitor, single point]	
COc1ccccc1-n1cnc2cc(NCc3ccco3)ccc21	active: 8.91 µM	
Cn1c(=O)oc2cc(S(=O)(=O)NC(CC(=O)O)c3cccc(Br)c3)ccc21 (configuration not stated)		inactive: -23%
CN(C)c1cc(N/N=C\c2ccccc2)nc(N(C)C)n1	inconclusive: 35.5 µM [inhibitor, single point]	
CCN(CC)S(=O)(=O)c1ccc(C(=O)OCn2c(SC)nnc(C)c2=O)cc1	inconclusive: 6.31 µM [inhibitor, single point]	
COc1cc(C(=O)Nc2ccc3nc4n(c(=O)c3c2)CCCCC4)cc(OC)c1OC	inactive	
CCOC(=O)c1ccoc1CSCc1ccc(C(=O)OC)o1	inconclusive: 22.4 µM [inhibitor, single point]	
O=C(CCNc1ccc(F)cc1)c1cccc([N+](=O)[O-])c1	inconclusive: 17.8 µM [inhibitor, single point]	
CC(C)Nc1nc(NCCN2CCCC2)c2sc(-c3ccccc3)cc2n1	inconclusive: 28.2 µM [inhibitor, single point]	
O=C(c1ccco1)N1N=C(c2ccccc2)CC1c1ccc2nccnc2c1 (configuration not stated)		inactive: 0.146%
